Test results published in the supplement of paper PMC10723795.
Structures can show the parent of a compound that is named as a salt. The list shows a part of the results.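 Rule for the calls: active = more than 2 SD below the DMSO mean: under 0.85 at 10 µM or 0.885 at 1 µM; inactive = the rest.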 Repeats are few or missing, and single values can be far off.

Test system: RPE1
Experiment: nucleolar normality score relative to DMSO (fraction of DMSO control); RPE1 is a non-cancer human cell line; higher = more normal nucleoli (less nucleolar stress)
Details: 24 h
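Note: fixed cells immunolabelled for nucleolin and UBF, 40 image fields per well in 384-well plates, per-cell score = nucleolin nucleolar/nucleoplasm intensity ratio divided by the matching UBF ratio.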

Structure (SMILES) | nucleolar normality score (1 µM) | nucleolar normality score (10 µM)
C=C1C(=O)O[C@@H]2/C=C(\C)CC/C=C(\C)CC[C@@H]12 [Costunolide] | active: 0.884 | inactive: 1.03
O=C(Nc1ccccc1)c1cc([N+](=O)[O-])ccc1Cl | inactive: 1.02 | inactive: 0.891
Oc1ccc2c(c1)OCO2 [Sesamol] | inactive: 0.971 | inactive: 0.887
Cn1cnc(-c2cc3nccc(Oc4ccc(NC(=S)NC(=O)Cc5ccccc5)cc4F)c3s2)c1 [Glesatinib?(MGCD265)] | inactive: 1.02 | inactive: 1.06
c1ccc2c(Cc3c[nH]c4ccccc34)c[nH]c2c1 [3,3'-Diindolylmethane] | inactive: 1.1 | inactive: 0.919
CCC(=O)N1CCN(c2ccc(-n3c(=O)ccc4cnc5ccc(-c6cnc7ccccc7c6)cc5c43)cc2C(F)(F)F)CC1 [Torin 1] | inactive: 0.993 | active: 0.578
O=c1cc(N2CCOCC2)oc2c(-c3cccc4c3sc3ccccc34)cccc12 | inactive: 1.01 | active: 0.663
COc1ccc([C@@H]2CC(=O)c3c(O)cc(O[C@@H]4O[C@H](CO[C@@H]5O[C@@H](C)[C@H](O)[C@@H](O)[C@H]5O)[C@@H](O)[C@H](O)[C@H]4O)cc3O2)cc1O [Hesperidin] | inactive: 0.976 | inactive: 0.857
Cc1ccc(-c2csc(NC(=O)c3ccccc3)n2)c(C)c1 | active: 0.881 | inactive: 1.03
CCCCCCCCCCCCCC(=S)NCCCC[C@H](NC(=O)OCc1ccccc1)C(=O)Nc1ccccc1 [Thiomyristoyl] | inactive: 1.03 | inactive: 1.06
Clc1ccc(NN=C(c2ccccc2)c2ccccn2)nc1 | active: 0.552 | active: 0.501
O=C(/C=C/c1ccc2ccccc2n1)c1ccncc1 | inactive: 1.02 | inactive: 1.01
CC(C)N(C[C@H]1O[C@@H](n2cnc3c(N)ncnc32)[C@H](O)[C@@H]1O)[C@H]1C[C@@H](CCc2nc3cc(C(C)(C)C)ccc3[nH]2)C1 [Pinometostat (EPZ5676)] | inactive: 1.06 | inactive: 0.905
Cc1c(C)c2c(c(C)c1O)CCC(C)(COc1ccc(CC3SC(=O)NC3=O)cc1)O2 (centres undefined) [Troglitazone (CS-045)] | inactive: 1 | inactive: 0.97
Cc1c(NC(=O)c2cc(C(N)=O)nc3cc(F)ccc23)c(C(F)(F)F)nn1Cc1ccc(C#N)cc1 | inactive: 1 | inactive: 0.932
Cc1ccc(NS(=O)(=O)c2ccc3c(c2)C2C=CCC2C(c2ccc(C(=O)O)cc2)N3)cc1C (centres undefined) | inactive: 0.941 | inactive: 1.02
COCCOc1cnc2ccn([C@H](C)c3nnc4c(F)cc(-c5cnn(C)c5)cn34)c(=O)c2c1 | inactive: 0.987 | inactive: 1.03
CCn1c2ccccc2c2cc(Nc3ccnc(NCCCN4CCOCC4)n3)ccc21 | inactive: 1.04 | inactive: 0.978
NC1(C(=O)N[C@@H](CCO)c2ccc(Cl)cc2)CCN(c2ncnc3[nH]ccc23)CC1 | inactive: 0.959 | inactive: 1.01
Cc1oncc1C(=O)Nc1ccc(C(F)(F)F)cc1 [Leflunomide] | inactive: 1.06 | inactive: 1.04
CN(C)/N=N/c1[nH]cnc1C(N)=O [Dacarbazine] | inactive: 1.05 | inactive: 1.1

Structure (SMILES) | nucleolar normality score (1 µM) | nucleolar normality score (10 µM)
Cn1cc(-c2ccc3ncc(Cc4ccc5ncccc5c4)n3n2)cn1 | inactive: 0.984 | inactive: 0.88
Cc1cc(C)c(-c2csc(NC(=O)c3ccccc3)n2)c(C)c1 | inactive: 0.95 | inactive: 1.07
Cn1cc(-c2cnn3c(N)c(Br)c([C@@H]4CCCNC4)nc23)cn1 | inactive: 1.01 | active: 0.828
C=CC(=O)Nc1cccc(Nc2nc(Nc3ccc(Oc4ccnc(C(=O)NC)c4)cc3)ncc2F)c1 | inactive: 0.988 | inactive: 1.05
CC(C)c1cc(-c2n[nH]c(=O)n2-c2ccc3c(ccn3C)c2)c(O)cc1O [Ganetespib (STA-9090)] | active: 0.337 | active: 0.295
COc1ccc(-c2ccc3ncc4c(c3c2)n(-c2ccc(N3CCNCC3)c(C(F)(F)F)c2)c(=O)n4C)cn1 | active: 0.499 | active: 0.268
N#CSc1cc(SC#N)c(N)nc1N | inactive: 0.981 | inactive: 0.974
Oc1ccc2ccccc2c1SSc1c(O)ccc2ccccc12 | inactive: 1.05 | inactive: 0.914
CCCCc1nc2cc(/C=C/C(=O)NO)ccc2n1CCN(CC)CC [Pracinostat (SB939)] | inactive: 1.1 | inactive: 0.913
O=C(Nc1cccc2cccnc12)c1ccc(N2C(=O)C3C4C=CC(C4)C3C2=O)cc1 (stereo not drawn) [IWR-1-endo] | inactive: 1.03 | inactive: 0.901
O=C(NO)c1cccc(C(=O)NCCc2ccccc2)c1 | inactive: 1.01 | inactive: 1.04
Cc1[nH]c2ccccc2c1C1=C(NCCc2ccc(F)cc2)C(=O)N(C)C1=O | inactive: 0.978 | inactive: 1.03
CC#CC(=O)N1CCC[C@H]1c1nc(-c2ccc(C(=O)Nc3ccccn3)cc2)c2c(N)nccn12 [Acalabrutinib (ACP-196)] | inactive: 0.942 | inactive: 0.98
CC(C)n1nc(-c2ccc3oc(N)nc3c2)c2c(N)ncnc21 [Sapanisertib (INK 128, MLN0128)] | active: 0.457 | active: 0.429
Nc1nc(NC2CC2)cc(-c2cccc(Cl)c2Cl)n1 | inactive: 0.988 | inactive: 1.03
C[C@]12CC[C@H](O)CC1=CC[C@@H]1[C@@H]2CC[C@]2(C)C(n3cnc4ccccc43)=CC[C@@H]12 [Galeterone] | inactive: 1.02 | inactive: 0.906
CC1=C(/C=C/C(C)=C/C=C/C(C)=C/C(=O)O)C(C)(C)CCC1 [Tretinoin] | inactive: 0.991 | inactive: 0.996
O=C(Nc1nc2cccc(-c3ccc(CN4CCS(=O)(=O)CC4)cc3)n2n1)C1CC1 [Filgotinib (GLPG0634)] | inactive: 0.987 | inactive: 0.966
COc1ccc2ccc(=O)oc2c1CC=C(C)C [Osthole] | inactive: 1.03 | inactive: 0.857
O=C(O)c1ccc(-c2c[nH]c3ncc(-c4ccccc4)cc23)cc1C1CCCC1 | inactive: 1.06 | inactive: 1.01
Cc1cc(Nc2ncc3c(n2)N(C)C(=O)N(c2cc(NC(=O)c4cccc(C(F)(F)F)c4)ccc2C)C3)n(C)n1 [Pluripotin (SC1)] | inactive: 1.06 | active: 0.685

Structure (SMILES) | nucleolar normality score (1 µM) | nucleolar normality score (10 µM)
c1ccc(-c2[nH]ncc2-c2ccnc3ccccc23)nc1 | active: 0.818 | inactive: 1.05
CCN(CC)CC(O)CNc1ccc(NCC2CO2)c2c1C(=O)c1ccccc1C2=O (centres undefined) | active: 0.386 | active: 0.205
C=CC(=O)Nc1cc(Nc2nccc(-c3c[nH]c4ccccc34)n2)c(OC)cc1N(C)CCN(C)C | inactive: 0.992 | inactive: 1.05
C=CC(=O)Nc1cc(Nc2nccc(-c3cn(C)c4ccccc34)n2)c(OC)cc1N(C)CCN(C)C [Osimertinib (AZD9291)] | inactive: 1.02 | inactive: 1.02
Cc1ccc(NCCCc2ccccc2)c(N)c1 | inactive: 0.986 | inactive: 1.06
C[C@H](NC(=O)/C(C#N)=C/c1cccc(Br)n1)c1ccccc1 | inactive: 1.01 | inactive: 0.87
CCC(CC)n1ccc2c(C(=O)NCc3c(C)cc(C)[nH]c3=O)cc(C#N)cc21 | inactive: 0.99 | inactive: 0.995
CCNC(=O)Nc1ccc(-c2nc3c(c(N4CCOC[C@@H]4C)n2)CCN(C2COC2)C3)cc1 | inactive: 0.986 | inactive: 0.975
C[C@]12CC[C@@H]3c4ccc(O)cc4CC[C@H]3[C@@H]1CC[C@@H]2O [Estradiol] | inactive: 0.99 | inactive: 1.07
CC(NC(=O)Cc1cc(F)cc(F)c1)C(=O)NC(C(=O)OC(C)(C)C)c1ccccc1 (centres undefined) | inactive: 1.07 | inactive: 1.13
Cn1cc(CNCC2CCN(c3ncc(C(=O)NO)cn3)CC2)c2ccccc21 | active: 0.496 | active: 0.47
O=c1c2ccccc2nc(C=Cc2cccnc2)n1Cc1ccccc1 | inactive: 0.912 | inactive: 0.969
Nc1cccc2c1C(=O)N(C1CCC(=O)NC1=O)C2=O (centres undefined) [Pomalidomide] | inactive: 0.989 | inactive: 1.08
COc1ccc(S(=O)(=O)Nc2cc(-c3c(O)ccc4ccccc34)c(O)c3ccccc23)cc1 | inactive: 0.932 | inactive: 0.955
CC1(C)CCC(C)(C)c2cc(NC(=O)c3ccc(C(=O)O)cc3)ccc21 [Tamibarotene] | active: 0.737 | inactive: 0.85
C[n+]1cc2c3c(ccc2c2ccc4cc5c(cc4c21)OCO5)OCO3 [Sanguinarine chloride] | active: 0.367 | active: 0.27
C[C@@H](NC(=O)c1ncnc(N)c1Cl)c1ncc(C(=O)Nc2cc(C(F)(F)F)c(Cl)cn2)s1 | inactive: 0.989 | inactive: 1.08
O=C(/C=C/c1ccccc1)NC(NC(=S)Nc1cccc2cccnc12)C(Cl)(Cl)Cl (centres undefined) [Salubrinal] | inactive: 1.05 | inactive: 1.06
C=C(C)[C@@H]1CC[C@]2(C(=O)O)CC[C@]3(C)[C@H](CC[C@@H]4[C@@]5(C)CCC(=O)C(C)(C)[C@@H]5CC[C@]43C)[C@@H]12 [Betulonic acid] | inactive: 1.03 | inactive: 0.872
Nc1ccn([C@@H]2O[C@H](CO)[C@@H](O)C2(F)F)c(=O)n1 [Gemcitabine HCl] | active: 0.486 | inactive: 1.07
